# Some of the results follow.
# Test system: PfSIP2 AP2 domain 1 (GST-tagged)
# Experiment: gcPBM binding intensity (ln(normalized median fluorescence intensity)); higher = stronger DNA binding
# Outline: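 Probes on an Agilent 4 × 180k array were primer-extended, double-stranded and 36 bp long, taken from intergenic genomic regions, with negative controls added. GST-tagged P. falciparum DNA-binding domains from E. coli, about 25 μg on average, were applied to the array for 1 h in 1× PBS containing 1% milk, 0.2 mg/ml BSA, 0.5% salmon testes DNA and 0.03% Triton X-100. Binding intensity, obtained after Alexa488 anti-GST antibody detection and a 488 nm scan, is the highest Masliner-normalised natural-log median intensity across replicate spots of either probe orientation.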
row,Sequence,gcPBM binding intensity (ln)
1,ATTTATGAAAAAAATACATGCATGTCCATATAAATT [TGCATGCA_site505],6.97
2,TTGTCAAAAATTACACACATAAATGAATAAATAAAT [XGTACX_negctrl_site541],6.75
3,ATATATATATATATATATATAATAAAAGATCATTTA [XGTACX_negctrl_site371],9.61
4,ATAATAAAAAGAAAAAGTACAAATGATTATGTTTGA [XGTACX_site3615],6.97
5,CAAGTATTATATTGCGCATGCAAAGAAGGACACAAA [TGCATGCA_site1024],7.51
6,TTATCTAGTACATACATACACACAACCATGTTATGA [CACACA_site3988],7
7,AATAAATAAATAAGTACACACATATAAATATAAATA [CACACA_site6271],7.18
8,TTCTACATGAAGTTATAAATTAATATTTTAATTTAT [XGTACX_negctrl_site134],6.58
9,TACTTTATTTTTTATACACACACAATATGTATATAT [CACACA_site9184],7.17
10,GTATTTCTTTAATATACACACACCAAAACAAAAAAA [CACACA_site579],7.19
11,TAAGATATAAAAAATGTGCACATTAAAGTATTAATT,8.15
12,TGTTATTCTGCATATACACACAAATAACAATTTAAA [CACACA_site6943],7.24
13,TCTTATGATGGAATGTTAAATATTACATTTTGTTTA [TGCATGCA_negctrl_site503],6.62
14,TAATGTTTCAAAATTTAATATACTACAAATATTATA [TGCATGCA_negctrl_site336],6.65
15,ATGAACATCCAATATACACACATATATATTTATATT [CACACA_site829],7.19
16,TTTATATAGAAACACACACACAAAAAAAAAAAAAAA [CACACA_site2646],6.99
17,TTACAAAAAAAAAGGCGCGGATGGGGGCAATAGCAA [CACACA_negctrl_site238],7.2
18,CAAAAAAAAAAAAAAACACACATTAAATTATAAAGA [CACACA_site2613],6.77
19,CACATATATACACATACACACACACCCATACACCCA [CACACA_site8505],7.35
20,TTTACATTTTAGGAAGTGCATATAATAAATACTATC,9.07
21,TACATAAATACATACACACACATATAACCAATGTAG [CACACA_site5243],7.18
22,ATCACATTCCACGGTACACACTAAAAGAAAAATCAG [CACACA_site5907],7.39

row,Sequence,gcPBM binding intensity (ln)
1,ATTTATATTTAATATACACACATTATTTTTTTATAT [CACACA_site574],7.14
2,AGAGTACAAGTAAATACACACATATATATGAAAATA [CACACA_site1079],7.03
3,TATAATATGACAAGAAGTACATATATTTACATATAT [XGTACX_site1571],6.91
4,CATTTCATTAATAAATGTACTTGTGAAGAGAAAAAG [XGTACX_site3115],7.17
5,TATATGTGGGTTTTTTTTATGTGTTTTTCTTTTTTT [CACACA_negctrl_site936],6.84
6,AAAAGATAAAAAGAAGTGCATAATAGGAACAAATAT [GTGCAC_site9717],8.07
7,ACAAAATTTACAAAATGTACAAAATATACAAAATGT [XGTACX_site3543],6.88
8,TATAAACGTATAATATGTACACACACATATATACAA [XGTACX_site1686],7.1
9,ATTATATAGAATTGTACATGCGAATTGTATAACGAT [TGCATGCA_site125],7.14
10,AAAAAAAAAAAAAAAAATATATTTATGAAATAAAAA [TGCATGCA_negctrl_site262],7.6
11,TATTTTTTTTTTTTTTTTTTTTTTATATATACATAT [CACACA_negctrl_site23],6.66
12,TTTCTATTCCATTCAACACACAAAAATGTATGCTTT [CACACA_site1072],6.98
13,AATGGATATTTCTTTATATATATCTTATTTGATTAT [XGTACX_negctrl_site284],6.77
14,TTTTTCTTTCTATTTATCAATATTAAAAAAAAAAAA [CACACA_negctrl_site1629],6.93
15,TTTTTTCAAATTTTCTTTTTTCTTTTGTTTTTTTTG [CACACA_negctrl_site380],6.33
16,TATACATGTATATATTGTACATATGTTTTTTTTACA [XGTACX_site3300],6.92
17,TTACTCATGAAAGATACACACATTCGTTATTTATAT [CACACA_site7517],6.97
18,TTTTTATAATGATACATATATTATTTTATTCTTAAT [CACACA_negctrl_site124],6.82
19,GAAGAAGTTTAAAAAGCACACAAAAAAAAAAAAAAA [CACACA_site9088],6.9
20,CACAAAATAAATTAAACACACAACATCATATATGTA [CACACA_site846],6.83
21,TATTTATAAACATACGCACACATTAATATATATATA [CACACA_site9314],8.85
22,TAAATTATTATCCCCTCACACACAAAAATAAAAAGA [CACACA_site2886],7.67

row,Sequence,gcPBM binding intensity (ln)
1,CTTGTAGATATAAAATGTACAAAAATAAATTGCACA [XGTACX_site4409],9.01
2,ATTATTATTAATCTTGTGCACATATATTTTAATTAG,9.68
3,AGATATTCTACTATGTGTACATATATATATATAATT [XGTACX_site5060],7.18
4,AAATAAATACATAATACATGCATATTTAATATATAG [TGCATGCA_site135],6.85
5,GTACAATCATATACTACATGCAGTTTTTTTTATTGA [TGCATGCA_site230],7.25
6,AATTTTTTTTAATGATGTACTTTTTGAAAATAAACT [XGTACX_site4221],7.1
7,TTTTCTTTTTCTTGTACACACATAATATGGATGAAA [CACACA_site808],7.14
8,ATATATATATATATTTATTCATATATTTTTTGTCTT [TGCATGCA_negctrl_site58],9.33
9,TAAAGAAACGCATCGACGCACACTACAAAATAAAAA [CACACA_site1348],6.93
10,TTTTTATTTTTTCAGTGTACATTTAAATTATCTTAT [XGTACX_site3905],6.98
11,AAATAATTTATGCATACACACATATATATATATATA [CACACA_site4020],9.78
12,TTACTTTTTTTTTTATGTACTTATATTTTTTACACT [XGTACX_site3503],6.95
13,TATGAATACATTTGTTGTACTTAAATTTCCTTTATT [XGTACX_site5374],6.8
14,TATAAATATCTGAATTGTACAGGTGAAAAAAAAAAT [XGTACX_site1867],7.43
15,TTTTTTATTATTATTATTTTTTATGTATAATAATGT [CACACA_negctrl_site631],6.85
16,TAGATATATAAATACACACACATACACAAAAAAAAA [CACACA_site7652],6.98
17,AATATGTGAATATAATCACACACAATACGGAAACAC [CACACA_site8875],8.19
18,AAAGAAGGATAATAATGTACAAGCAAAAAAATAAAA [XGTACX_site466],7
19,AAATAATTATTTATCACACATATGTATTTATATATA [CACACA_site4589],7.1
20,CTTTTTTTAATGATAACACACATGTTGTGCATAGAC [CACACA_site3270],8
21,ACATATATTTCAAAGTGTACGCACAATTTTTTTTAC [XGTACX_site6166],7.48
22,AACATATATATAATATGTACATAATATATATAAATG [XGTACX_site1161],6.9

row,Sequence,gcPBM binding intensity (ln)
1,TTAGTTTCCCAAATATGTACATAAATATAAATCATA [XGTACX_site2746],7.19
2,TTATTATTTTTTAACACACACATATATATTATATCT [CACACA_site4906],7.06
3,GTAAGAACACTTTTGTGGTTACTTAAAAGTGTATAT [GTGCAC_negctrl_site422],6.92
4,ATTTCAACAAATATAACACACAATGGATAAGAATAA [CACACA_site1974],7.13
5,TGCTTATATGTTGTTACACACTAAAATAGTTAGATA [CACACA_site1277],7.09
6,AATACAGTTAGAGAAAGTACACAACTAATATACATA [XGTACX_site8814],7.27
7,ATTTTGTTATGAAACACACACATATAAATATAAATA [CACACA_site7679],7.26
8,AATACACGCAGACACACACACAAAAAAAAAAAAAAA [CACACA_site6384],7.2
9,TATATAAAACATGGGTGTACCAACATAAATCATATA [XGTACX_site2320],6.88
10,AATTGTGCATTATATTGTACACGTGTTGTATATATT [XGTACX_site975],8.21
11,TTGAATATGGTTACATGTACGTATCAATATTTTTTA [XGTACX_site4247],6.79
12,TATACATTATTATTATGTACTTAAATATATATTATA [XGTACX_site5173],7.11
13,ATTAACACATTTAAGTGTACATATATAAATATATAT [XGTACX_site7098],7.07
14,ATATAACTCAAGGGCACACATATACCTTTCCTTTTT [CACACA_site4390],7.1
15,GGAACGTATATTTTCACACACTCTCAAAAGTACAAG [CACACA_site2301],7.09
16,GAAACAAAATTATTTTGTACATATGACTGTAGATAT [XGTACX_site972],7.11
17,TGTGCACGTTCTGTGACACACATTTAAATGTGCTTA [CACACA_site176],10.7
18,ATATATATATATAGTTGTACTTAATTTTATATGTTA [XGTACX_site5256],9.28
19,TATATTATTTATTAGACACACATTATTAAAATATTT [CACACA_site4737],6.82
20,TGTTGTATATCTCTATATAGCTATATTGTATATATA [TGCATGCA_negctrl_site323],6.97
21,GTGAAATTATTTCCGTGTACACATAAATATATATTT [XGTACX_site3989],7.38
22,CCTTGATATATATAAAGTACATATATATATATATAT [XGTACX_site4325],9.9
